Positions count from the first letter of the chain named. The list shows a part of the results.
T1: RBFOX1 RRM RbFoxmut (Fox-RRM*) (Homo sapiens, UniProt Q9NWB1 109-208, R118D;E147R;N151S;E152T)
T1 sequence: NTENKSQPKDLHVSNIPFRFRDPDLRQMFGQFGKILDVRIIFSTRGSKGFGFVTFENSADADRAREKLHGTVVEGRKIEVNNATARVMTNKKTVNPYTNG

B1: GUCACGG (DNA:RNA)
RNA: GGGAGACCGGAAUUCAGAUUGUCCGUCACGGUUAAAUCCCGUCGUAGCCACCA
DNA 1: CAATCTGAATTCCGGTCTCCC
DNA 2: TGGTGGCTACGACGGGATT
B2: GAAGUGU (DNA:RNA)
RNA: B1 RNA with U26A, C27A, A28G, C29U, G31U
DNA 1: CAATCTGAATTCCGGTCTCCC
DNA 2: TGGTGGCTACGACGGGATT
B3: UUGUCAG (DNA:RNA)
RNA: B1 RNA with G25U, C27G, A28U, G30A
DNA 1: CAATCTGAATTCCGGTCTCCC
DNA 2: TGGTGGCTACGACGGGATT
B4: GAACCUA (DNA:RNA)
RNA: B1 RNA with U26A, C27A, A28C, G30U, G31A
DNA 1: CAATCTGAATTCCGGTCTCCC
DNA 2: TGGTGGCTACGACGGGATT
B5: UUCACUA (DNA:RNA)
RNA: B1 RNA with G25U, G30U, G31A
DNA 1: CAATCTGAATTCCGGTCTCCC
DNA 2: TGGTGGCTACGACGGGATT
B6: GGCCUCU (DNA:RNA)
RNA: B1 RNA with U26G, A28C, C29U, G30C, G31U
DNA 1: CAATCTGAATTCCGGTCTCCC
DNA 2: TGGTGGCTACGACGGGATT
B7: CAGAGUC (DNA:RNA)
RNA: B1 RNA with G25C, U26A, C27G, C29G, G30U, G31C
DNA 1: CAATCTGAATTCCGGTCTCCC
DNA 2: TGGTGGCTACGACGGGATT
B8: CUCGUCU (DNA:RNA)
RNA: B1 RNA with G25C, A28G, C29U, G30C, G31U
DNA 1: CAATCTGAATTCCGGTCTCCC
DNA 2: TGGTGGCTACGACGGGATT
B9: GACUUGC (DNA:RNA)
RNA: B1 RNA with U26A, A28U, C29U, G31C
DNA 1: CAATCTGAATTCCGGTCTCCC
DNA 2: TGGTGGCTACGACGGGATT
B10: GCGCGCA (DNA:RNA)
RNA: B1 RNA with U26C, C27G, A28C, C29G, G30C, G31A
DNA 1: CAATCTGAATTCCGGTCTCCC
DNA 2: TGGTGGCTACGACGGGATT
B11: GCUACCA (DNA:RNA)
RNA: B1 RNA with U26C, C27U, G30C, G31A
DNA 1: CAATCTGAATTCCGGTCTCCC
DNA 2: TGGTGGCTACGACGGGATT
B12: GGUUAUA (DNA:RNA)
RNA: B1 RNA with U26G, C27U, A28U, C29A, G30U, G31A
DNA 1: CAATCTGAATTCCGGTCTCCC
DNA 2: TGGTGGCTACGACGGGATT
B13: UCGGGGA (DNA:RNA)
RNA: B1 RNA with G25U, U26C, C27G, A28G, C29G, G31A
DNA 1: CAATCTGAATTCCGGTCTCCC
DNA 2: TGGTGGCTACGACGGGATT
B14: GAAUCCA (DNA:RNA)
RNA: B1 RNA with U26A, C27A, A28U, G30C, G31A
DNA 1: CAATCTGAATTCCGGTCTCCC
DNA 2: TGGTGGCTACGACGGGATT
B15: UCAUGGG (DNA:RNA)
RNA: B1 RNA with G25U, U26C, C27A, A28U, C29G
DNA 1: CAATCTGAATTCCGGTCTCCC
DNA 2: TGGTGGCTACGACGGGATT
B16: GGUGUAC (DNA:RNA)
RNA: B1 RNA with U26G, C27U, A28G, C29U, G30A, G31C
DNA 1: CAATCTGAATTCCGGTCTCCC
DNA 2: TGGTGGCTACGACGGGATT
B17: CCAUGCC (DNA:RNA)
RNA: GGGAGACCGGAAUUCAGAUUGUCCCCAUGCCUUAAAUCCCGUCGUAGCCACCA
DNA 1: CAATCTGAATTCCGGTCTCCC
DNA 2: TGGTGGCTACGACGGGATT
B18: GGACUAA (DNA:RNA)
RNA: B17 RNA with C25G, C26G, U28C, G29U, C30A, C31A
DNA 1: CAATCTGAATTCCGGTCTCCC
DNA 2: TGGTGGCTACGACGGGATT
B19: UACCUAC (DNA:RNA)
RNA: B17 RNA with C25U, C26A, A27C, U28C, G29U, C30A
DNA 1: CAATCTGAATTCCGGTCTCCC
DNA 2: TGGTGGCTACGACGGGATT
B20: AAUACGG (DNA:RNA)
RNA: B1 RNA with G25A, U26A, C27U
DNA 1: CAATCTGAATTCCGGTCTCCC
DNA 2: TGGTGGCTACGACGGGATT

Target: T1, RBFOX1 RRM RbFoxmut (Fox-RRM*)
Experiment: EMSA; HiTS-Eq, 1 nM pool, 10 min; buffer printed only for the single-RNA assays: 10 mM Tris pH 7.5, 150 mM NaCl, 3.4 mM EDTA, 0.001% NP-40, 30 C
Settings: tags: His6 N-terminal (pET28a); label: 5' 32P
Summary of the method: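 Purified wild-type or mutant RbFox RRM at increasing concentrations was equilibrated with 1 nM of 5′-radiolabelled RNA carrying 7 randomized nucleotides for 10 min in 50 µL. Unbound RNA was separated by 8% native PAGE and sequenced. Relative association constants came from read-count changes of each RNA species compared with the control reaction, normalised to the cognate motif.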

| Binder | binding signal |
| --- | --- |
| B1 | 0.0964 KA relative to UGCAUGU |
| B2 | 0.125 KA relative to UGCAUGU |
| B3 | 0.132 KA relative to UGCAUGU |
| B4 | 0.0903 KA relative to UGCAUGU |
| B5 | 0.147 KA relative to UGCAUGU |
| B6 | 0.0835 KA relative to UGCAUGU |
| B7 | 0.111 KA relative to UGCAUGU |
| B8 | 0.0745 KA relative to UGCAUGU |
| B9 | 0.133 KA relative to UGCAUGU |
| B10 | 0.13 KA relative to UGCAUGU |
| B11 | 0.0847 KA relative to UGCAUGU |
| B12 | 0.121 KA relative to UGCAUGU |
| B13 | 0.0781 KA relative to UGCAUGU |
| B14 | 0.239 KA relative to UGCAUGU |
| B15 | 0.0933 KA relative to UGCAUGU |
| B16 | 0.0906 KA relative to UGCAUGU |
| B17 | 0.19 KA relative to UGCAUGU |
| B18 | 0.0685 KA relative to UGCAUGU |
| B19 | 0.111 KA relative to UGCAUGU |
| B20 | 0.0866 KA relative to UGCAUGU |
